Sequences with one replicate were seen in a single cluster, so their values are uncertain.
What follows are sequences tested on ATP (assay: switch fluorescence ratio, 500 uM ATP over buffer (Cy3 cluster intensity, sum of 5 cycles each) (fold (ratio)); higher = stronger signal-on switching upon ATP binding; sequences stand for … in TCGTCGGCAGCGTCAGATGTGTATAAGAGACAGTTTTTTTTTTTTTTTTTTTTTTTTT…TC). Conditions: aptamer strand: ATP DNA aptamer (quencher-CACCTGGGGGAGTATTGCGGAGGAAGG + anchor), 100 nM annealed; ATP concentration: 500 uM; one replicate.
Procedure, shortened: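 Cy3-labelled switching-strand clusters on a modified Illumina MiSeq flow-cell were annealed to 100 nM quencher-labelled ATP aptamer and imaged first in selection buffer, then after 15 min with 500 uM ATP at 22 °C. NaOH stripping and re-annealing separated each of five buffer/ATP cycles, and clusters outside 100-1000 RFU were excluded. The fluorescence ratio sums target-cycle Cy3 intensity over buffer-cycle Cy3 intensity per cluster and averages it per switch-domain sequence.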
For TCTGCGTACG, the switch fluorescence ratio was 1.03. In the case of TCTGCGTCGT, the switch fluorescence ratio is reported as 1. For TCTGCGTTAC, the switch fluorescence ratio was 3.53. TCTGGATATG was tested, and the switch fluorescence ratio was 1.04. With TCTGGATTCC the switch fluorescence ratio was 0.998. Sequence TCTGGCCTCC has a switch fluorescence ratio of 1.21. TCTGGCGCTA was tested, and the switch fluorescence ratio was 1.44. TCTGGCTGAT showed a switch fluorescence ratio of 1. TCTGGGAAGC gave a switch fluorescence ratio of 0.982. TCTGGGCTAT was tested, and the switch fluorescence ratio was 1.05. TCTGGGGTCC was tested, and the switch fluorescence ratio was 0.948. With TCTGGGTTTC the switch fluorescence ratio was 1.06. TCTGGTATCG showed a switch fluorescence ratio of 0.998. TCTGTAAGCT was tested, and the switch fluorescence ratio was 1.04. TCTGTAGCAT showed a switch fluorescence ratio of 3.73. TCTGTATTCA was tested, and the switch fluorescence ratio was 1. Sequence TCTGTCGATT has a switch fluorescence ratio of 1.03. In the case of TCTGTGATG, the switch fluorescence ratio is reported as 1.22. TCTGTGGTG was tested, and the switch fluorescence ratio was 1.01. Work on TCTGTGTGCA yielded a switch fluorescence ratio of 0.951. TCTGTGTGCC was tested, and the switch fluorescence ratio was 1.02. TCTGTTAAGA gave a switch fluorescence ratio of 1.03. In the case of TCTGTTGTTA, the switch fluorescence ratio is reported as 0.955. TCTTAAAAGC was tested, and the switch fluorescence ratio was 1.02. Work on TCTTAAACTA yielded a switch fluorescence ratio of 1.04. TCTTAAGCCG gave a switch fluorescence ratio of 1.23. TCTTAAGGTT was tested, and the switch fluorescence ratio was 0.978. TCTTACAGGT showed a switch fluorescence ratio of 1.14. TCTTACGGGC gave a switch fluorescence ratio of 1.02. Work on TCTTCAATGA yielded a switch fluorescence ratio of 0.998. TCTTCAGGTA showed a switch fluorescence ratio of 0.966. TCTTCATACC showed a switch fluorescence ratio of 1.04. TCTTCATCTA was tested, and the switch fluorescence ratio was 1.02. Work on TCTTCCTATG yielded a switch fluorescence ratio of 1.4. For TCTTCCTTTG, the switch fluorescence ratio was 1.34. With TCTTCTGCTC the switch fluorescence ratio was 1. For TCTTGATTAC, the switch fluorescence ratio was 0.991. TCTTGCCACT showed a switch fluorescence ratio of 0.99. Work on TCTTGCCCCA yielded a switch fluorescence ratio of 1.04. TCTTGCTGGA gave a switch fluorescence ratio of 0.998. Sequence TCTTGGAGTA has a switch fluorescence ratio of 1.03. With TCTTGGATGC the switch fluorescence ratio was 1.01. With TCTTGGCCAA the switch fluorescence ratio was 1.04. TCTTGGCGGA showed a switch fluorescence ratio of 1.01. With TCTTGGCGTA the switch fluorescence ratio was 1.04. With TCTTGGGTCA the switch fluorescence ratio was 1.08. TCTTTACATC showed a switch fluorescence ratio of 1.27. In the case of TCTTTAGATC, the switch fluorescence ratio is reported as 0.986. TCTTTAGGGC was tested, and the switch fluorescence ratio was 1.01. TCTTTAGTCG gave a switch fluorescence ratio of 0.924. TCTTTATACC showed a switch fluorescence ratio of 1.06. For TCTTTCGAA, the switch fluorescence ratio was 1.01. With TCTTTCGCTG the switch fluorescence ratio was 0.978. Sequence TCTTTTAACT has a switch fluorescence ratio of 0.994. TCTTTTCCTC was tested, and the switch fluorescence ratio was 0.967. TCTTTTGGG showed a switch fluorescence ratio of 0.966. Sequence TCTTTTGTCT has a switch fluorescence ratio of 1.02. TGAAAAAGCC was tested, and the switch fluorescence ratio was 1.04. Work on TGAAAAATAT yielded a switch fluorescence ratio of 0.961. Work on TGAAAAATCC yielded a switch fluorescence ratio of 1.31. With TGAAAACTTT the switch fluorescence ratio was 0.993. Sequence TGAAAAGTAC has a switch fluorescence ratio of 1.34. Work on TGAAAATCAT yielded a switch fluorescence ratio of 0.982. In the case of TGAAACGTTG, the switch fluorescence ratio is reported as 0.948. TGAAAGCAAT gave a switch fluorescence ratio of 1.67. With TGAACCCGT the switch fluorescence ratio was 0.985. In the case of TGAACCGGCA, the switch fluorescence ratio is reported as 1.1. TGAACGCAAG was tested, and the switch fluorescence ratio was 1.73. Sequence TGAACGGTCT has a switch fluorescence ratio of 1.06. TGAACTGGTT gave a switch fluorescence ratio of 0.966. TGAAGCATG was tested, and the switch fluorescence ratio was 1.08. TGAAGCGAGC was tested, and the switch fluorescence ratio was 1.01. TGAAGCGGCC was tested, and the switch fluorescence ratio was 1.11. For TGAAGCGGGC, the switch fluorescence ratio was 1.22. With TGAAGGTTGT the switch fluorescence ratio was 0.952. TGAAGTGAGC gave a switch fluorescence ratio of 1.09. Sequence TGAAGTGTCG has a switch fluorescence ratio of 0.886. Sequence TGAAGTTAAC has a switch fluorescence ratio of 0.997. With TGAAGTTGT the switch fluorescence ratio was 1.07. With TGAAGTTTAG the switch fluorescence ratio was 1.04. In the case of TGAATACGAA, the switch fluorescence ratio is reported as 0.996. With TGAATACTCA the switch fluorescence ratio was 1.17. For TGAATAGTCC, the switch fluorescence ratio was 1.09. Work on TGAATAGTTC yielded a switch fluorescence ratio of 1.05. For TGAATATAAG, the switch fluorescence ratio was 0.997. For TGAATATGC, the switch fluorescence ratio was 1.13. Work on TGAATCAA yielded a switch fluorescence ratio of 1.01. TGAATCCCAC gave a switch fluorescence ratio of 1.09. TGAATCCTT was tested, and the switch fluorescence ratio was 0.992. TGAATCGC was tested, and the switch fluorescence ratio was 1.05. Work on TGAATCTAGG yielded a switch fluorescence ratio of 1.04. Sequence TGAATTACAG has a switch fluorescence ratio of 1.03. In the case of TGAATTCCCC, the switch fluorescence ratio is reported as 1.01. Work on TGAATTCCCT yielded a switch fluorescence ratio of 0.998. Sequence TGAATTCCTT has a switch fluorescence ratio of 0.974. For TGAATTGCT, the switch fluorescence ratio was 1.03. TGAATTTAGG showed a switch fluorescence ratio of 0.998. With TGACAAA the switch fluorescence ratio was 1.04. In the case of TGACAAGTCA, the switch fluorescence ratio is reported as 0.997. With TGACACATCG the switch fluorescence ratio was 1.05. Sequence TGACACGCTG has a switch fluorescence ratio of 1.1. For TGACAGGGGG, the switch fluorescence ratio was 1.03. TGACAGTCCC gave a switch fluorescence ratio of 1.01. With TGACATCCCT the switch fluorescence ratio was 1.04. Sequence TGACATGGCA has a switch fluorescence ratio of 0.961. With TGACATGGGC the switch fluorescence ratio was 0.976. Sequence TGACCCAGTC has a switch fluorescence ratio of 1.01. TGACCGGGTG gave a switch fluorescence ratio of 1.63. TGACCTACCG was tested, and the switch fluorescence ratio was 1.06. With TGACGACTAA the switch fluorescence ratio was 1.22. Sequence TGACGATCTG has a switch fluorescence ratio of 1.02. Sequence TGACGATTAT has a switch fluorescence ratio of 1.26. Sequence TGACGCGGTA has a switch fluorescence ratio of 1.14. Work on TGACGCTAGC yielded a switch fluorescence ratio of 2.05. TGACGGTGAA showed a switch fluorescence ratio of 0.964. TGACGTCCTT showed a switch fluorescence ratio of 1.03. With TGACGTCTTA the switch fluorescence ratio was 1. Work on TGACGTGGTT yielded a switch fluorescence ratio of 0.977. In the case of TGACGTTCAA, the switch fluorescence ratio is reported as 1.1. In the case of TGACGTTGAC, the switch fluorescence ratio is reported as 0.973. With TGACGTTTGT the switch fluorescence ratio was 0.997. TGACTACTTG gave a switch fluorescence ratio of 1.05. Sequence TGACTCAATT has a switch fluorescence ratio of 2.97. Work on TGACTCCAGC yielded a switch fluorescence ratio of 1.54. In the case of TGACTCCTGT, the switch fluorescence ratio is reported as 1.03. With TGACTCGTGA the switch fluorescence ratio was 1.04. TGACTGGCTC gave a switch fluorescence ratio of 0.969. For TGACTTAGT, the switch fluorescence ratio was 0.961. In the case of TGACTTATAA, the switch fluorescence ratio is reported as 1.03. TGACTTATTG showed a switch fluorescence ratio of 1.04. TGAGAAGATT gave a switch fluorescence ratio of 0.993. Sequence TGAGAATTCG has a switch fluorescence ratio of 0.989. Work on TGAGACCGT yielded a switch fluorescence ratio of 0.975. TGAGACGTGT showed a switch fluorescence ratio of 1. In the case of TGAGAGATAC, the switch fluorescence ratio is reported as 1.06. With TGAGAGCAAT the switch fluorescence ratio was 4.05. Work on TGAGAGCGGG yielded a switch fluorescence ratio of 1.02. TGAGATGAAC showed a switch fluorescence ratio of 1. TGAGCACGAG gave a switch fluorescence ratio of 1.1. TGAGCATTTG was tested, and the switch fluorescence ratio was 1.01. Work on TGAGCCATCC yielded a switch fluorescence ratio of 1.15. Sequence TGAGCGATGG has a switch fluorescence ratio of 1.17. For TGAGCGGAGA, the switch fluorescence ratio was 0.983. In the case of TGAGCTCATT, the switch fluorescence ratio is reported as 0.975. In the case of TGAGCTTACG, the switch fluorescence ratio is reported as 1.07. TGAGCTTCGG was tested, and the switch fluorescence ratio was 0.983. Work on TGAGGAATGC yielded a switch fluorescence ratio of 1.35. TGAGGAGGCT was tested, and the switch fluorescence ratio was 0.979. In the case of TGAGGAGTGT, the switch fluorescence ratio is reported as 0.975. TGAGGCTGGA showed a switch fluorescence ratio of 0.991. TGAGGGGTAC was tested, and the switch fluorescence ratio was 1.02. Sequence TGAGGTAAGC has a switch fluorescence ratio of 0.996. Work on TGAGTAATGT yielded a switch fluorescence ratio of 0.999. For TGAGTAGATG, the switch fluorescence ratio was 1.02. With TGAGTATCGG the switch fluorescence ratio was 1. Sequence TGAGTATGAA has a switch fluorescence ratio of 0.983. Work on TGAGTCATCG yielded a switch fluorescence ratio of 1.01. In the case of TGAGTGTTGG, the switch fluorescence ratio is reported as 1.01. With TGAGTTCGTC the switch fluorescence ratio was 0.996. TGAGTTGATA gave a switch fluorescence ratio of 0.98. Sequence TGATAACTTT has a switch fluorescence ratio of 0.979. TGATAAGTGG showed a switch fluorescence ratio of 1.03. TGATACATCA gave a switch fluorescence ratio of 0.972. TGATACTATA was tested, and the switch fluorescence ratio was 0.999. Sequence TGATAGGCAA has a switch fluorescence ratio of 2.13. For TGATATGGTT, the switch fluorescence ratio was 0.95. Work on TGATATTAAG yielded a switch fluorescence ratio of 0.992. TGATCAATTC was tested, and the switch fluorescence ratio was 1.03. TGATCCAATT gave a switch fluorescence ratio of 0.993. In the case of TGATCCGGTT, the switch fluorescence ratio is reported as 1.01. With TGATCCTCTT the switch fluorescence ratio was 1.01. Work on TGATCGACGC yielded a switch fluorescence ratio of 2.24. In the case of TGATCGAGGG, the switch fluorescence ratio is reported as 1.01. Sequence TGATCGGGAG has a switch fluorescence ratio of 1.03. Work on TGATCTTTTA yielded a switch fluorescence ratio of 0.987. With TGATCTTTTG the switch fluorescence ratio was 1.01. For TGATGAAAGT, the switch fluorescence ratio was 0.974. Work on TGATGAGAGT yielded a switch fluorescence ratio of 0.998. TGATGCGG was tested, and the switch fluorescence ratio was 0.998. Sequence TGATGCGGAA has a switch fluorescence ratio of 1.07. For TGATGCTAAA, the switch fluorescence ratio was 0.984. TGATGCTTAC showed a switch fluorescence ratio of 2.88. TGATGTATAG was tested, and the switch fluorescence ratio was 1.04. TGATTAATCA showed a switch fluorescence ratio of 0.99. TGATTCTGAA showed a switch fluorescence ratio of 0.997. For TGATTGAAGA, the switch fluorescence ratio was 0.931. With TGATTGAGTC the switch fluorescence ratio was 1.03. Work on TGATTGGGC yielded a switch fluorescence ratio of 1.02. TGATTTGGTG showed a switch fluorescence ratio of 1.03. In the case of TGCAAAAAGT, the switch fluorescence ratio is reported as 1.02. TGCAAAAGAC was tested, and the switch fluorescence ratio was 1. Work on TGCAAAGGCG yielded a switch fluorescence ratio of 1.02. For TGCAACGGGG, the switch fluorescence ratio was 1. TGCAACTTGA gave a switch fluorescence ratio of 0.971. Sequence TGCAAGCCG has a switch fluorescence ratio of 1.07. Work on TGCAAGCGCC yielded a switch fluorescence ratio of 1.08. Sequence TGCAAGGAGT has a switch fluorescence ratio of 0.997. With TGCAATCGCT the switch fluorescence ratio was 4.44. Work on TGCAATGCAT yielded a switch fluorescence ratio of 1.06. For TGCACATAGC, the switch fluorescence ratio was 1.08. Sequence TGCACCAGCC has a switch fluorescence ratio of 1.09.

— the supplement of paper PMC10126150
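Note: ATP exposure 15 min at 22 °C before imaging.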
